# Data reported in PubChem BioAssay (NCATS).
# “And” between values parts separate entries of the source, which are not always exact repeats. Identical values can stand only once. Inconclusive means that the source gave no clear call. Such entries were picked first, then a sample of the others. Potencies beside an inconclusive call are fits to weak or partial responses and may not hold up. Some compounds were tested as several samples or in several runs, with calls that do not always agree. The source made the active and inactive calls. Calls follow the shape of the dose curve; as a rule, active = well fitted cell-killing curve with a large enough effect; inconclusive = small, poorly fitted or top-dose-only effect, or effect the other way; inactive = no such curve, though single readings can be large or run the other way.
# Experiment: MultiTox-Fluor Cytotoxicity Assay - LYMP1-002 - Dead Cells (AID 960); also: nearly all actives have a fitted effect of over 60% in size;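 as to cytotoxicity (dead cells): cells exposed to compound for 16 h at 37 °C; 0% = DMSO and 100% = tetraoctylammonium bromide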
# Conditions: LYMP1-002 lymphoblastoid cells, dead-cell protease fluorescence; series mostly up to 46.1 µM; cytotoxicity (dead cells): at the top concentration
# Summary of the method: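 Concentration-dependent increases in membrane-leaked protease activity are quantified in LYMP1-002 cells after 16 hr treatment; values are normalized against DMSO and tetraoctylammonium bromide (15 uM) controls and AC50 derived by Hill modeling.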
# Potency is read from the fitted curve at half-maximal effect; tags tell the direction and shape of the fitted curve.
SMILES,Potency,cytotoxicity (dead cells)
CCCCC(CC)COC(=O)c1ccccc1C(=O)OCC(CC)CCCC (stereo not drawn),"inconclusive: 0.0158 µM [cytotoxic, full curve, poor fit]",
CN1C[C@H](C(=O)N[C@]2(C)O[C@@]3(O)[C@@H]4CCCN4C(=O)[C@H](Cc4ccccc4)N3C2=O)C=C2c3cccc4[nH]cc(c34)C[C@H]21,"inconclusive: 2.51 µM [falling, full curve, poor fit]",
C[C@]12CCC(=O)C=C1CC[C@@H]1[C@@H]2CC[C@]2(C)C(=O)CC[C@@H]12,active: 15.8 µM,
Nc1ccc(Sc2ccc(N)cc2)cc1,,inactive: -21.7%
COP(=S)(OC)Oc1ccc(SC)c(C)c1,,inactive: 2.48%
Nc1ccc(Cl)cc1N,,inactive: -9.92%
C[C@]12CCC(=O)C=C1CC[C@@H]1[C@@H]2CC[C@@]2(C)[C@H]1CC[C@]2(C)O,"inconclusive: 15.8 µM [cytotoxic, partial curve, poor fit]",
c1ccc2c(c1)Nc1ccccc1S2,,inactive: 21.2%
Oc1ccc(Cl)cc1,,inactive: 3.72%
COc1ccc(C(c2ccc(OC)cc2)C(Cl)(Cl)Cl)cc1,"inconclusive: 31.6 µM [cytotoxic, partial curve, poor fit] and inconclusive: 2 µM [cytotoxic, partial curve, poor fit]",
O=S(=O)(c1ccc(Cl)cc1)c1ccc(Cl)cc1,"inconclusive: 31.6 µM [cytotoxic, single point]",
CCOCCOC(C)=O,"inconclusive: 31.6 µM [cytotoxic, single point]",
CC(C)(O)C(=O)Nc1ccc([N+](=O)[O-])c(C(F)(F)F)c1,"inconclusive: 12.6 µM [cytotoxic, full curve]",
Nc1ccccc1,"inconclusive: 0.0251 µM [cytotoxic, full curve, poor fit]",
C[C@]12CCC(=O)C[C@@H]1CC[C@@H]1[C@@H]2CC[C@]2(C)[C@@H](O)CC[C@@H]12,"inconclusive: 20 µM [cytotoxic, partial curve, poor fit]",
CCOP(=S)(OCC)Oc1cc(C)nc(C(C)C)n1,,inactive: 15.1%
C=CCN=C=S,,inactive: 21.2%
CNCC(O)c1ccc(O)cc1 (stereo not drawn),"inconclusive: 3.16 µM [cytotoxic, full curve, poor fit]",
